The values that follow come from the supplement of paper PMC11417369.

The other results are listed elsewhere or left out.

In the test the test system is PfAP2-HC AP2 domain (GST-tagged). In words: gcPBM binding intensity (ln(normalized median fluorescence intensity)); higher = stronger DNA binding. In outline: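 In this array assay, P. falciparum DNA-binding domains with a GST tag, expressed in E. coli, were applied for 1 h to primer-extended double-stranded 36-bp intergenic genomic probes and negative controls on an Agilent 4 × 180k array. Bound protein was visualised with Alexa488 anti-GST antibody at 488 nm. Binding intensity is the highest Masliner-normalised natural-log median intensity across replicate spots of either probe orientation.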
Take “AATGAATCCTTATATACACACATTATTATATTATAT [CACACA_site3108]”: the “gcPBM binding intensity (ln)” value stood at 10.
As for TTTTTGTTCTATATGGTGCATGTTTATATTCGTATT, the “gcPBM binding intensity (ln)” value turned out to be 9.95.
As for “ATTAGCAACATTGATAAATATAAACACACGAAAACA [TGCATGCA_negctrl_site97]”, the “gcPBM binding intensity (ln)” value was determined as 10.1.
To “ATACCATAAATATTGTGTACATAAATATGTTAGTAA [XGTACX_site6077]” belongs 9.66; to “TTTTAGAAATTTACTAAACTTTATATAACTATTGAA [TGCATGCA_negctrl_site280]”, 9.45.
The value for “CATGTTTATGCCGTTTGTACATATATATCTAAAAAA [XGTACX_site4336]” was 9.41; that for “CACGTATATATATATACACACACATATATATATGTA [CACACA_site7948]” was 9.97; that for “GAGAAAAGGAAATTCACACATATAAAGAAAGATCTA [CACACA_site5420]” was 9.55.
The value for “ATTGATACATCCAATACACACTACATATAATGATGT [CACACA_site8561]” was 9.9; that for “TTTTTTATATATACATATATATAAATATATATAACT [GTGCAC_negctrl_site385]” was 9.58; that for “ATATTAATAATATATGCATGCATTAACATATTGAAA [TGCATGCA_site951]” was 9.64.
Consider “GTATGTATGTATATATGTACACATTATTATTTAATG [XGTACX_site5802]”, for which the “gcPBM binding intensity (ln)” value is 9.75.
To “TATGGAGAAATAAATAGTACGTATTTTATTTAAAAA [XGTACX_site3129]” belongs 9.68; to “AAAAATATAAAAATAGCACACATATATACATATATA [CACACA_site7901]”, 9.89; to “ATGTTCGATGATAAATGTACAAAAATAATGGAAGTA [XGTACX_site1916]”, 9.74.
As to “TATAAAAATATTGAAAGTACTTATTAAAATATTATT [XGTACX_site3701]”, the “gcPBM binding intensity (ln)” value turned out to be 9.59.
Regarding “TTTCCTAGCACATGCACACAAAAAAAAAAAAAAAAA [CACACA_site1404]”, the “gcPBM binding intensity (ln)” value is 9.48.
With “CTTGCAAAAAGTATATGTACATATATATATATATAT [XGTACX_site5792]”, the “gcPBM binding intensity (ln)” value amounted to 9.61.
To “TGTTTGCTTATGTGTTAAATATATATATATATATAT [TGCATGCA_negctrl_site218]” belongs 9.69.
The value for “ATTTTAGGAAAAAAAAGTACATATAATTTTTTATAT [XGTACX_site6954]” was 9.41; that for “CGAACACAAACACAAACACACATCAGATATAAATAT [CACACA_site6736]” was 10.1.
To “TTTTTTTTGATATATACACACAATAAATAAATATAA [CACACA_site7400]” belongs 9.53; to “ATTTATTATTATATCACACATAATATATTAAATGAT [CACACA_site5821]”, 9.61; to “CTATAATATGGTATTACACACTGTTATAAGTATGGC [CACACA_site7068]”, 9.76.
Regarding “ATATATTTTTTGAATACACACATATTATCTGTAATA [CACACA_site4826]”, the “gcPBM binding intensity (ln)” value was 9.69.
The value for “TATAAATAGAGACACACACACATATAAATAAATATT [CACACA_site7854]” was 10.4.
To “TATATTTCTTCTATAACATGCAGATATATGAAAATA [TGCATGCA_site971]” belongs 9.32; to “TAATGAAATATTATGTGTACTTAAAAATTATTAAAT [XGTACX_site5261]”, 9.5; to “ATTATTAACATATATATACACACGAAAAAATTATAT [CACACA_site625]”, 9.91.
To “AGAATTATTTTATGTTTGCACTTTTTTTTTCTATAA [GTGCAC_site9876]” belongs 9.84.
On to “TATTCCTAATTGACAACACACACAACAAAAAAGGGA [CACACA_site8350]”, for which the “gcPBM binding intensity (ln)” value amounted to 10.3.
In the case of “GTTTTCATCCAAAAAAGTACATTTATTTTTATACGA [XGTACX_site1039]”, the “gcPBM binding intensity (ln)” value came out at 9.39.
The value for “GTAGTGGTTGAATATACACACATATATAAATAAATA [CACACA_site7282]” was 9.83; that for “ATGTATGAATTACATAGTACATAAGAAAAAATGAAG [XGTACX_site5942]” was 9.91; that for “GGAAAATCTTTATAATGTACATTATGATTATATAAT [XGTACX_site6256]” was 9.66.
To “AAATATAAAGTGCACACACACAAAAAAAGAAAAAAA [CACACA_site6452]” belongs 10.2; to “TTAAAATATGAATAATGTACAAGAAATTTTATTAAT [XGTACX_site6314]”, 9.58.
The value for “ATTATTACATTTTTATGTACATATCAAATTTATACA [XGTACX_site7332]” was 9.7.
As to “TTAACTTAAGGAGAGTGTACAAATAATAAAATATCT [XGTACX_site4118]”, the “gcPBM binding intensity (ln)” value was 9.64.
The value for “TAACCTAAAATAACTACACACACATAAAAAAAAAAA [CACACA_site8807]” was 11.2; that for “ATATTTTTTACAAATTGTACATTTTTACAATTATTA [XGTACX_site7496]” was 9.62; that for TATAAATTAAAATGTGTGCACTAAATTGAAATAGAA was 9.94.
The value for “ATATATATATATAATAGTACATATATTTTTATTGGT [XGTACX_site711]” was 9.65.
The value for “TCACTTAATATTTAATGTACATAAGGTTCTTGTGCC [XGTACX_site1822]” was 9.41; that for “TTATATAACATTATTTGTACATATAAAATATGGATG [XGTACX_site8526]” was 9.52; that for “AAAAAAAATTTATGGGGTACATATTATAATATTATA [XGTACX_site3395]” was 9.52.
Turning to “TATATAACCTATAGCACACATATATAATATATATTA [CACACA_site1834]”, the “gcPBM binding intensity (ln)” value is 9.67.
“TTCTATTCAAATGCAAAATTATTAAATAAAAAATAA [GTGCAC_negctrl_site708]”: the “gcPBM binding intensity (ln)” value was 9.32.
To “TTATTTTTTTTAAATTGTACAAGGAACAGTGAAAAA [XGTACX_site4380]” belongs 9.42.
The value for TTTGTGTGTACGCGTGTGCACATTTTTTTTTTTTTT was 9.89; that for “TAAATGTCTTCAATGAAGTGGAAATGCTGTTATATA [CACACA_negctrl_site1155]” was 9.5; that for “AAAAAAAATTTTAATTGTACAAAAAAAAAAAATATA [XGTACX_site2259]” was 9.63.
As for “TATATATGGGTAACCTTTTTTTTTTTTTTTCGAACA [CACACA_negctrl_site1303]”, the “gcPBM binding intensity (ln)” value worked out at 9.27.
To “GGAAAATATGTTTGTGTGCACAGCTAGCTATTTGTA [GTGCAC_site9637]” belongs 9.93.
As for “AAATAAATTGATTCAACACACACATATGTAGGAAGT [CACACA_site9068]”, the “gcPBM binding intensity (ln)” value is 10.5.
“TTTTTTTTTTTCAAGCGTACAAAAAATATATTTAAA [XGTACX_site5327]”: the “gcPBM binding intensity (ln)” value was 9.29.
Regarding “AATTTTTTTTGTCTCTGTACTTATAAAATATATATG [XGTACX_site4742]”, the “gcPBM binding intensity (ln)” value was found to be 9.69.
The value for “TAAAACCTTTAAAATACATGCAGCATATATAAGTAA [TGCATGCA_site181]” was 9.6; that for “AAGGATATAACATACACACACACACCCATATATATA [CACACA_site4142]” was 11.1.
To “AAAGAAATTATTTGTTGTACATATGTTATTTTTTTT [XGTACX_site7570]” belongs 9.74.
To TGCAATTTAATATGAGTGCATATATTGAGAAAATAC belongs 9.64; to “AATAAATTGGTATGTTGTACAAAGTAACCATCGATT [XGTACX_site2823]”, 9.75.
In the case of “ATATCATGTTAAGATTGTACATATATATAATATATA [XGTACX_site7626]”, the “gcPBM binding intensity (ln)” value is 9.59.
The value for “AAATAACAAATTTTTAAAATGTATATATATATATAT [TGCATGCA_negctrl_site219]” was 9.47.
To “ATTCATAATTTATTATGTACATATATATAATATATT [XGTACX_site1711]” belongs 9.7; to “TTATAATAAATATTCATATGTTCAAATATATATATA [CACACA_negctrl_site624]”, 9.45; to “TTTATTTATTATTATGTACACACTATATTAAAACAT [CACACA_site700]”, 9.74.
For the sequence “TATAGATTTATATACACATGCATTTTGGTAAAGAAA [TGCATGCA_site953]”, the “gcPBM binding intensity (ln)” value came to 9.6.
The value for “AAATATATTTCTTTTTTTCTTATTATTAATTTGCTT [CACACA_negctrl_site1483]” was 9.59; that for “ATTGTAAGTAGACACACACACATATAGATGTATATA [CACACA_site6463]” was 10.2; that for “TATTTTTTTAATAACTGTACTTTTTTGTCAAATGGA [XGTACX_site4179]” was 9.16.
For the sequence “TTAGGATTGAAGAGTTGTACATACCTCTTATTTGTT [XGTACX_site1376]”, the “gcPBM binding intensity (ln)” value is 9.64.
Regarding “ATCATATATTATTTATGTACTTATTTATAATAATAT [XGTACX_site8257]”, the “gcPBM binding intensity (ln)” value is 9.64.
To “TATAAAATGTAATCTGAACACACATATTTTTTTAAT [CACACA_site8521]” belongs 9.72; to “TTAAAATTATAATACGTACACACCTTATCTTTTTGG [CACACA_site278]”, 9.76.
Consider “GGCGTATGTGTATATACACACCCACGTATATATATA [CACACA_site9046]”, for which the “gcPBM binding intensity (ln)” value came to 9.87.
The value for “TGTTGTTTTATGTTGTATTGTAATATATTATATTAT [XGTACX_negctrl_site46]” was 9.9; that for “ATATATAACGGGCACACACACATTTACGTATGAATA [CACACA_site1833]” was 11.1; that for “ATATATGGAGCTTATACACACTTTTATATTTTAACA [CACACA_site7757]” was 9.82.
The value for “TTGGGCATAATGTCATGTACACAAATAATTCTTTAT [XGTACX_site861]” was 9.55; that for “AAACGTGTGTATAATAGTACATAATTATAACGTAAT [XGTACX_site421]” was 10.
As for “CGTATTTTTGGACATGCATGTACAAATAATCTTATG [TGCATGCA_site973]”, the “gcPBM binding intensity (ln)” value came out at 9.57.
To “AAATTTGGCAAACACACACACACACCCACAGAGACA [CACACA_site4490]” belongs 11.3.
On to “AATGTTTTTGTGAGATGTATAAATTTTATTTTATTT [XGTACX_negctrl_site413]”, for which the “gcPBM binding intensity (ln)” value is 9.7.
Turning to “AAAAAAATAATGTACACACACATATAGGTTTATATA [CACACA_site192]”, the “gcPBM binding intensity (ln)” value worked out at 9.98.
To “TAAGTTTTGTTCTTTTGTACATATAAGTATAGATCG [XGTACX_site4735]” belongs 9.46; to “AGATTTATTCATTCATGTACTTATTTATTTTATTTT [XGTACX_site6702]”, 9.87.
The value for “AATGTGCAAACAAACTGTACTTTTTTTTTTTTTTTT [XGTACX_site928]” was 9.57; that for “TATAATGATGATGATAGTACGTATGAGTAAGAAAAA [XGTACX_site31]” was 9.83.
